Assay results reported in PubChem BioAssay AID686979 (National Center for Advancing Translational Sciences (NCATS), 2013).
Values joined by “and” are separate entries in the source; they are usually repeats but may differ in a detail not shown here. Equal values may be shown once. Among all 420,000 compounds or so, about 50,000 (12%) were called active. Inconclusive results, whose numbers are uncertain, are shown with a selection of clear calls. The call rests on the fitted dose curve; in most records, active means well fitted inhibition curve with a large enough effect; inconclusive means small, poorly fitted or top-dose-only effect; inactive means flat fitted curve, though single readings scatter. Potencies beside an inconclusive call are fits to weak or partial responses and may not hold up.

Assay: qHTS for Inhibitors of human tyrosyl-DNA phosphodiesterase 1 (TDP1): qHTS in cells in presence of CPT; further: nearly all actives have a fitted effect of over 55% in size
Conditions: chicken DT40 Tdp1-/-;hTDP1 cells + 20 nM CPT, ATP luminescence, 48 h; activity change, negative = growth inhibition: at 46.2 µM (top of the series)
Procedure, shortened: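 Chicken DT40 Tdp1-/- cells complemented with human TDP1, 400 cells/well, exposed to compounds plus 20 nM camptothecin for at least 48 h at 37 C; viability read as ATP content by CellTiter-Glo luminescence.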
On the % scale 0 is the no-effect control and ±100 the full control effect; potency means the concentration at half of the fitted maximal effect; tags describe the fitted curve by direction and shape.

Compound | Potency | activity change, negative = growth inhibition
Cc1cc(C)c(NC(=O)c2ccc3c(c2)CCN3S(C)(=O)=O)c(C)c1 | inconclusive: 18.4 µM [inhibitor, partial curve] | –
Cc1ccc(S(=O)(=O)/N=C2/NC(=O)/C(=C/c3ccccc3)S2)cc1 | – | inactive: -11.6%
Cc1ccc(F)cc1-c1cc(C(=O)NCc2cc(C(F)(F)F)cc(C(F)(F)F)c2)[nH]n1 | active: 29.1 µM | –
CCOc1cc(N2CCOCC2)c(OCC)cc1NC(=O)CSc1ccccc1C(=O)O | inconclusive: 25.9 µM [inhibitor, single point] | –
O=C(Cn1cc2c(n1)CCCC2)NCCCN1CCN(c2ccccc2F)CC1 | inconclusive: 25.9 µM [inhibitor, single point] | –
O=C(OC(C(=O)NC1CCCCC1)c1ccccc1F)c1ccco1 (stereo not drawn) | – | inactive: -18.5%
CCCSc1ccc([C@H]2N[C@@](C)(C(=O)OC)[C@H]3C(=O)N(C)C(=O)[C@@H]23)cc1 | – | inactive: -29.4%
COc1ccc(C(=O)CC(c2ccccc2)C2C(=O)CCCC2=O)cc1 (stereo not drawn) | – | inactive: -23.8%
O=C(NCCCNC(=O)c1ccccc1Br)c1ccccc1Br | – | inactive: 16%
CCOC(=O)c1ccc(NC(=O)CCC(=O)OC)cc1 | – | inactive: -3.17%
COc1cccc(NC(=O)Cn2c(-c3nonc3N)nc3ccccc32)c1 | – | inactive: -12%
CC(=O)Nc1nc2ccccc2n1CCN(C)C | – | inactive: -1.74%
COc1ccccc1N1CCN(c2csc3ccccc3c2=O)CC1 | inconclusive: 29.1 µM [inhibitor, single point] | –
COc1cc(-c2nc3n(n2)C(c2cccc(OC)c2OC)C2=C(CCCC2=O)N3)cc(OC)c1OC (stereo not drawn) | inconclusive: 7.31 µM [inhibitor, full curve] | –
O=C(NCc1ccc(F)cc1)c1cc(C2CCCCN2C(=O)c2cccs2)on1 (stereo not drawn) | inconclusive: 23.1 µM [inhibitor, single point] | –
COc1cc(N=c2ssnc2Cl)cc(OC)c1 | active: 10.3 µM | –
O=C(NC1CCN(Cc2ccccc2)C1)c1cc(COc2ccc(F)cc2F)on1 (stereo not drawn) | inconclusive: 29.1 µM [inhibitor, single point] | –
COc1cc2c(cc1OC)C(c1ccccc1[N+](=O)[O-])=NCC2 | active: 5.8 µM | –
CCN(CC)S(=O)(=O)c1cc([N+](=O)[O-])ccc1N=Nc1c(O)n(C)c2ccccc12 | inconclusive: 18.4 µM [inhibitor, single point] | –
Cc1cccc(NC(=O)N2CCN3CCCCC3C2)c1C (stereo not drawn) | – | inactive: 4.19%
O=S(=O)(c1ccc(SCCOc2ccccc2Cl)nc1)N1CCCC1 | inconclusive: 20.6 µM [inhibitor, single point] | –
Fc1ccc2cnc(-c3ccccc3)c(-c3cc(C(F)(F)F)cc(C(F)(F)F)c3)c2c1 | inconclusive: 29.1 µM [inhibitor, single point] | –
COCCSc1nc2c(c(=O)[nH]c(=O)n2C)n1CCCc1ccccc1 | inconclusive: 29.1 µM [inhibitor, single point] | –
CCOc1ccc(-c2n[nH]c(C)c2Oc2ccc(OC)cc2)c(O)c1 | active: 20.6 µM | –
Cc1ccccc1OCCn1cc(/C(N)=N/O)c2ccccc21 | inconclusive: 18.4 µM [inhibitor, single point] | –

Compound | Potency | activity change, negative = growth inhibition
CC1(C)[C@@H](O[C@H]2O[C@H](C(=O)O)[C@@H](O)[C@H](O)[C@H]2O[C@@H]2O[C@H](C(=O)O)[C@@H](O)[C@H](O)[C@H]2O)CC[C@]2(C)[C@H]3C(=O)C=C4[C@@H]5C[C@@](C)(C(=O)O)CC[C@]5(C)CC[C@@]4(C)[C@]3(C)CC[C@@H]12 | inactive | –
COc1ccc(NS(=O)(=O)c2cc(NS(=O)(=O)c3cccs3)ccc2C)cc1 | – | inactive: -16.5%
O=C(N/N=C/c1ccc(Br)cc1)c1ccccc1-n1cccc1 | inconclusive: 18.4 µM [inhibitor, single point] | –
CC1CCCCN1C(=O)C(=O)c1cn(CC(=O)N2CCCCCC2)c2ccccc12 (stereo not drawn) | inconclusive: 18.4 µM [inhibitor, partial curve] | –
CCc1ccc(Sc2cc(C(=O)NCCCN3CCC(C)CC3)c3ccccc3n2)cc1 | active: 16.4 µM | –
CS(=O)(=O)c1ccc(Cl)c(NC(=O)CCc2ccccc2)c1 | – | inactive: 8.99%
N#Cc1c(C#N)c(SSc2c(C#N)c(C#N)c(N)n2-c2ccccc2)n(-c2ccccc2)c1N | active: 4.61 µM | –
COc1ccc(C(=O)Sc2ccc(Cl)cc2)cc1OC | active: 8.2 µM | –
C=CCn1c(SCC(=O)Nc2cc(C)nn2-c2ccccc2)nnc1C1CCCCC1 | inconclusive: 18.4 µM [inhibitor, single point] | –
Cc1noc(C)c1NC(=O)N(C)C[C@H]1Oc2ccc(NC(=O)c3ccncc3)cc2C(=O)N([C@H](C)CO)C[C@@H]1C | – | inactive: -8.96%
COc1ccccc1CNC(=O)CCCCn1c(=O)c2ccccc2n(CC(=O)Nc2cccc(Cl)c2)c1=O | active: 23.1 µM | –
CCOc1ccc(/C=C/c2nc(C#N)c(N3CCC(C)CC3)o2)cc1 | active: 10.3 µM | –
CCCCOn1c(C)c(C(=O)OCC)c2c3nonc3ccc21 | inconclusive: 32.6 µM [inhibitor, single point] | –
COc1ccccc1S(=O)(=O)Nc1ccc2nc(C)sc2c1 | active: 2.59 µM | –
O=C(O)c1cc(=O)c2c3nc4ccccc4oc-3cc(=O)c2[nH]1 | active: 25.1 µM | –
CCOC1=C2CN(S(=O)(=O)c3ccc(C)cc3)[C@H](c3cccs3)C[C@H]2[C@H]2C(=O)N(c3ccccc3)C(=O)[C@H]2C1 | – | inactive: -20.8%
Cc1ccc(-n2ncc3c(N4CCN(c5ccc(F)cc5)CC4)ncnc32)cc1 | – | inactive: -1.83%
C/C(Cn1nnc([N+](=O)[O-])n1)=N\NC(=O)c1ccc(O)cc1 | active: 14.6 µM | –
COc1ccc(-c2csc(Nc3cc(C)ccn3)n2)cc1OC | inconclusive: 18.4 µM [inhibitor, single point] | –
Cc1ccc(Nc2nc(N3CCOCC3)nc(N3CCOCC3)n2)cc1Cl | active: 23.1 µM | –
CCc1ccc(NC(=O)C2CCCN(c3nnc(C)c4c(C)n(-c5ccccc5)nc34)C2)cc1 (stereo not drawn) | inconclusive: 9.2 µM [inhibitor, partial curve] | –
Cc1ccc(C(=O)N2CCN(c3ccc(NC(=S)NC(=O)Cc4ccccc4)cc3)CC2)cc1 | active: 35.5 µM | –
C/C=C1\COC(C(=O)NCCN2CCCC2)(C(F)(F)F)C=C1C=C1CCCCC1 (stereo not drawn) | active: 18.4 µM | –
O=C(NC1CCCCC1)c1nc2c(nnn2Cc2ccccc2Cl)c(=O)[nH]1 | inconclusive: 31.6 µM [inhibitor, single point] | –
CC1CCN(c2nc3c(c(=O)[nH]c(=O)n3C)n2CCCc2ccccc2)CC1 | active: 16.4 µM | –

Compound | Potency | activity change, negative = growth inhibition
COc1cccc(S(=O)(=O)N(C)C[C@H]2Oc3ncc(Br)cc3C(=O)N([C@@H](C)CO)C[C@@H]2C)c1 | inconclusive: 29.1 µM [inhibitor, single point] | –
O=C(c1ccco1)N1CCN=C1SCc1ccccc1F | – | inactive: -8.7%
CN1CCN(C2=Nc3ccccc3Sc3ccc(Cl)cc32)CC1 | inconclusive: 15 µM [inhibitor, partial curve, poor fit] and inconclusive: 29.1 µM [inhibitor, single point] | –
COc1ccccc1CNc1ccnc(-c2cccnc2)n1 | inconclusive: 16.4 µM [inhibitor, single point] | –
Cc1ccsc1-c1nc(CN(C)C(C2CC2)C2CC2)c(C)o1 | inconclusive: 20.6 µM [inhibitor, single point] | –
CNC(=O)c1ccccc1Sc1cccc2cccc(C(=O)O)c12 | – | inactive: -0.387%
OCCOCCn1c(C(CO)Nc2nc(-c3ccc(F)cc3)cs2)nc2ccccc21 (stereo not drawn) | – | inactive: -22.1%
O=C(NNC(=O)C1CCN(C(=O)Nc2ccccc2)CC1)c1ccc(F)cc1 | – | inactive: -6.4%
N#Cc1ccc(S(=O)(=O)N2CCC(C(=O)Nc3cccc(C(=O)NC4CC4)c3)CC2)cc1 | – | inactive: -0.506%
COC(=O)c1c(-c2cccs2)csc1NC(=O)c1ccc(C)cc1 | – | inactive: 3.66%
O=C(Cn1c(-c2cccs2)cc2ccccc21)N1CCN(c2ccc(F)cc2)CC1 | inconclusive: 29.1 µM [inhibitor, single point] | –
O=C(OCc1cn([C@H]2CN(Cc3cccs3)[C@@H](c3ccccc3)C[C@@H]2O)nn1)c1ccccc1 | active: 18.4 µM | –
CCN(CC)C(=O)C1=C(C)N(Cc2ccc(C(C)(C)C)cc2)C(=O)C(CC(=O)NC2CCCC2)C1 (stereo not drawn) | inconclusive: 29.1 µM [inhibitor, single point] | –
Cc1cccn2c(=O)nc(SCC(=O)N3CCC(C)CC3)nc12 | – | inactive: -10.2%
CCCNC(=O)C1(C)CCCN(Cc2cccn2C)C1 (stereo not drawn) | – | inactive: -29.7%
Cc1ccc(S(=O)(=O)N2CCOCC2)cc1C(=O)NC(=S)N1CC(C)OC(C)C1 (stereo not drawn) | – | inactive: 3.82%
C=CCn1c(SCc2cccc(OC)c2)nnc1-c1ccncc1 | – | inactive: -20.4%
O=C(CCCN1C(=O)/C(=C/c2ccccc2Cl)SC1=S)NNC(=O)c1ccccc1 | active: 18.4 µM | –
COC(=O)c1ccc(NC(=O)CN(C2CCCCC2)S(C)(=O)=O)cc1 | inconclusive: 23.1 µM [inhibitor, partial curve, poor fit] | –
Cc1ccc(CNS(=O)(=O)c2ccc3c(c2)CC(C)N3C(=O)C2CCC2)cc1 (stereo not drawn) | inconclusive: 20.6 µM [inhibitor, single point] | –
COc1ccc(-c2[nH]ncc2CN2CCC(N3CCSCC3)CC2)cc1F | – | inactive: 3.75%
CC1(Cc2ccccc2OC(F)(F)F)C(=O)Nc2cc(-c3ccccc3Cl)ccc21 (stereo not drawn) | inconclusive: 23.1 µM [inhibitor, single point] | –
Cc1[nH]c2ccccc2c1/C=C/c1c[nH]c2ccccc12 | inconclusive: 35.5 µM [inhibitor, single point] | –
